Data published in PubChem BioAssay AID588342 (National Center for Advancing Translational Sciences (NCATS), 2011).
Out of some 360,000 compounds screened, about 25,000 (6.9%) were called active. This list was built around the results that the source calls inconclusive (neither active nor inactive); the mix of calls is not that of the screen. Calls follow the shape of the dose curve; as a rule, active = well fitted inhibition curve with a large enough effect; inconclusive = small, poorly fitted or top-dose-only effect; inactive = flat fitted curve, though single readings scatter. Potencies beside an inconclusive call are fits to weak or partial responses and may not hold up.

molecular target: Luciferin 4-monooxygenase (Photinus pyralis) (UniProt P08659); assay: qHTS profiling assay for firefly luciferase inhibitor/activator using purifed enzyme and Km concentrations of substrates (counterscreen for miR-21 project); conditions: purified FLuc, luminescence inhibition; series mostly up to 57.5 µM; also: nearly all actives have a fitted effect of over 55% in size
Chain of UniProt P08659 (P08659 whole entry, looked up): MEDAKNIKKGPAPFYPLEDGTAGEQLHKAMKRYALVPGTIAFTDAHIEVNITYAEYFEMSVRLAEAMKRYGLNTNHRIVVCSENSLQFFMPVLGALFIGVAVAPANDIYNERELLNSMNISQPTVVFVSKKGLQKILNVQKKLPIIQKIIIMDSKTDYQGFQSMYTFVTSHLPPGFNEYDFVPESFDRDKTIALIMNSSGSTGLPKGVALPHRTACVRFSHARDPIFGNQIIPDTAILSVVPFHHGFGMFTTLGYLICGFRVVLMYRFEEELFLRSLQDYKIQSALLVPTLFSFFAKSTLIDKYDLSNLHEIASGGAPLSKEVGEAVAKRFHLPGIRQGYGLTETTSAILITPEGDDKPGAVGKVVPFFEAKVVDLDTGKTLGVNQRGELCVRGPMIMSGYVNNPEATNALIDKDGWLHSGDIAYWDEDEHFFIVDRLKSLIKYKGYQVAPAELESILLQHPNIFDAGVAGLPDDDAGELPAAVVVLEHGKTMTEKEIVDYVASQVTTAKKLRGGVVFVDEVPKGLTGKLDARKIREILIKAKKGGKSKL
Procedure, shortened: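 Purified P. pyralis luciferase (10nM final) with 10uM D-luciferin and 10uM ATP (Km levels) in 50mM Tris acetate pH 7.5, 10mM Mg acetate, 0.01% Tween-20, 0.05% BSA; qHTS 6-point titration, ~60 µM downward; luminescence read.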
Potency is read from the fitted curve at half-maximal effect; tags tell the direction and shape of the fitted curve.

Question: With `O/N=C/c1ccnc(SCc2ccccc2)n1` as the molecule, how does the Potency read?
Answer: The Potency was inconclusive: 16.9 µM [inhibitor, partial curve].

Question: `CCc1ccc(Nc2nc3ccccc3nc2NS(=O)(=O)c2ccccc2)cc1` was tested. Which Potency did it give?
Answer: The Potency was inconclusive: 37.9 µM [inhibitor, single point].

Question: How did the Potency turn out when `Cc1ccc(C(=O)COc2ccc3ccc(=O)oc3c2)cc1` was run?
Answer: Its Potency is inconclusive: 5.36 µM [inhibitor, full curve].

Question: With `COc1cccc(CC(=O)Nc2nc(-c3cccnc3)cs2)c1` as the molecule, how does the Potency read?
Answer: Its Potency is “inactive”.

Question: With `O=C(Nc1cccc2ccccc12)C(=O)C1C(=O)Nc2ccccc21` (stereo not drawn) as the molecule, how does the Potency read?
Answer: Its Potency is inconclusive: 19 µM [inhibitor, partial curve, poor fit].

Question: With `Cc1ccc2cc(C(c3nnnn3C3CCCC3)N3CCOCC3)c(=O)[nH]c2c1C` (stereo not drawn) as the molecule, how does the Potency read?
Answer: Its Potency is “inactive”.

Question: For `Cc1ccc(NC(=O)Cc2nc(CCl)cs2)cc1`, which Potency is on record?
Answer: Its Potency is inconclusive: 33.8 µM [inhibitor, single point].

Question: With `O=C(Cn1c(=O)nc(-c2ccccc2)c2ccccc21)Nc1ccc(Cl)cc1F` as the molecule, how does the Potency read?
Answer: The Potency was “inactive”.

Question: For `CCCCOC(=O)c1ccc(NC(=O)c2sc3nc(C)cc(C)c3c2N)cc1`, which Potency is on record?
Answer: The Potency was inconclusive: 23.9 µM [inhibitor, partial curve, poor fit].

Question: For `Cc1cccc(NC(=S)NCCc2ccccc2)n1`, which Potency is on record?
Answer: The Potency was inconclusive: 37.9 µM [inhibitor, partial curve, poor fit].

Question: With `Cc1nc2ccc(NC(=S)NC(C)C)cc2nc1C` as the molecule, how does the Potency read?
Answer: The Potency was inconclusive: 23.9 µM [inhibitor, partial curve, poor fit].

Question: With `Cc1cc2c(cc1S(=O)(=O)Nc1cc(C(F)(F)F)cc(C(F)(F)F)c1)OCC(=O)N2` as the molecule, how does the Potency read?
Answer: Its Potency is inconclusive: 21.3 µM [inhibitor, partial curve].

Question: With `Cc1ccc(NC(=O)/C=C/c2ccccc2Cl)cc1Cl` as the molecule, how does the Potency read?
Answer: The Potency was inconclusive: 2.13 µM [inhibitor, full curve].

Question: With `NC(=O)C1CCN(CC(=O)Nc2ccc(S(=O)(=O)N3CCOCC3)cc2)CC1` as the molecule, how does the Potency read?
Answer: Its Potency is “inactive”.

Question: `Cc1sc2nc(C3CC3)nc(SCC(=O)N3CC(=O)Nc4ccccc43)c2c1C` was tested. Which Potency did it give?
Answer: The Potency was inconclusive: 30.1 µM [inhibitor, single point].

Question: `CC1CCN(c2ccc(-c3cccc(NS(=O)(=O)c4ccc(F)cc4F)c3)nn2)CC1` was tested. Which Potency did it give?
Answer: The Potency was active: 1.69 µM.

Question: With `CCn1nnc(NC(=O)c2ccc(Br)o2)n1` as the molecule, how does the Potency read?
Answer: The Potency was “inactive”.

Question: For `O=C1CC(Sc2nnc(-c3ccccc3O)o2)C(=O)N1c1ccccc1` (stereo not drawn), which Potency is on record?
Answer: Its Potency is inconclusive: 37.9 µM [inhibitor, partial curve, poor fit].

Question: How did the Potency turn out when `C#CCn1c(O)c(N=NC(=O)C(O)c2ccccc2)c2ccccc21` (stereo not drawn) was run?
Answer: Its Potency is “inactive”.

Question: Which Potency does the source give for `CCOC(=O)c1sc(NC(=O)c2c(-c3ccccc3)c(-c3ccccc3)nn(C)c2=O)nc1C` here?
Answer: The Potency was inconclusive: 5.36 µM [inhibitor, partial curve].

Question: Which Potency does the source give for `CN(C)/C=N/c1ncn(-c2ncc(C(F)(F)F)cc2Cl)n1` here?
Answer: The Potency was inconclusive: 23.9 µM [inhibitor, single point].

Question: For `Cn1c(=O)c(C(=O)NC2CCCCCC2)c(O)c2ccccc21`, which Potency is on record?
Answer: Its Potency is inconclusive: 10.7 µM [inhibitor, partial curve].

Question: For `Cn1c(SCc2ccccc2Cl)nnc1-c1cnccn1`, which Potency is on record?
Answer: The Potency was inconclusive: 21.3 µM [inhibitor, single point].

Question: With `Cc1ccccc1OCC(=O)Nc1ccc2c(c1)COC2=O` as the molecule, how does the Potency read?
Answer: Its Potency is inconclusive: 37.9 µM [inhibitor, partial curve, poor fit].

Question: With `CCOC(=O)c1ccc(NC(=O)c2cn3c4c(ccc(Cl)c4c2=O)OC(C)C3)cc1` (stereo not drawn) as the molecule, how does the Potency read?
Answer: Its Potency is “inactive”.

Question: Which Potency does the source give for `Cc1ccc2c(C(=O)CNc3nncs3)c(C)[nH]c2c1` here?
Answer: Its Potency is inconclusive: 21.3 µM [inhibitor, single point].

Question: `[O-]/[N+](=C/c1ccc(F)cc1)c1ccccc1` was tested. Which Potency did it give?
Answer: The Potency was inconclusive: 13.5 µM [inhibitor, partial curve].

Question: How did the Potency turn out when `CN(C)S(=O)(=O)c1ccc(C(=O)NC(=O)CSc2ccccc2)cc1` was run?
Answer: Its Potency is inconclusive: 26.9 µM [inhibitor, single point].

Question: Which Potency does the source give for `CN(C)C(=O)c1ccc(NC(=O)c2ccc(-c3ccc(Cl)cc3)o2)cc1` here?
Answer: Its Potency is inconclusive: 26.9 µM [inhibitor, single point].

Question: With `Cc1ccc(-c2nc(C)c(CCNC(=O)c3ccccc3Br)s2)cc1` as the molecule, how does the Potency read?
Answer: The Potency was inconclusive: 26.9 µM [inhibitor, partial curve, poor fit].

Question: With `CC(=O)Nc1ccccc1OCc1nnc(-c2ccccc2Cl)o1` as the molecule, how does the Potency read?
Answer: Its Potency is inconclusive: 30.1 µM [inhibitor, partial curve, poor fit].

Question: For `Cc1ccc(/C=C/c2nnc(-c3ccccc3)o2)cc1`, which Potency is on record?
Answer: The Potency was active: 5.36 µM.

Question: Which Potency does the source give for `O=C(Nc1cccc(C(F)(F)F)c1)C1CCCN(c2ncccn2)C1` (stereo not drawn) here?
Answer: Its Potency is “inactive”.

Question: `O=C(/C=C/c1ccc(Cl)cc1)NCc1cccs1` was tested. Which Potency did it give?
Answer: Its Potency is active: 15.1 µM.

Question: For `Cc1ccc(/C=N/NC(=S)N2CCOCC2)cc1`, which Potency is on record?
Answer: Its Potency is active: 15.1 µM.

Question: `Cc1cc(N)c(-n2cc3c(=O)n(C)c(=O)n(C)c3c2)cc1C` was tested. Which Potency did it give?
Answer: The Potency was active: 16.9 µM.

Question: For `COc1cccc(Nc2nc(N)nc(CCl)n2)c1`, which Potency is on record?
Answer: The Potency was active: 21.3 µM.

Question: How did the Potency turn out when `CC1=NN(c2ccccc2)C(=O)/C1=C\C=C\c1ccccc1` was run?
Answer: The Potency was active: 16.9 µM.

Question: For `Cc1ccc2nc(NNC(=O)c3ccc4c(c3)OCCO4)sc2c1`, which Potency is on record?
Answer: Its Potency is inconclusive: 23.9 µM [inhibitor, single point].

Question: With `CC(=O)O[C@H]1C(=O)[C@@]2(C)[C@H]([C@H](OC(=O)c3ccccc3)[C@]3(O)C[C@H](OC(=O)[C@H](O)[C@@H](NC(=O)c4ccccc4)c4ccccc4)C(C)=C1C3(C)C)[C@]1(OC(C)=O)CO[C@@H]1C[C@@H]2O` as the molecule, how does the Potency read?
Answer: The Potency was inconclusive: 8.49 µM [inhibitor, partial curve, poor fit].

Question: Which Potency does the source give for `CCOC(=O)c1cn[nH]c1NC(=S)Nc1ccccc1` here?
Answer: Its Potency is active: 2.13 µM.

Question: With `COc1cccc(NC(=O)CN2C(=O)c3ccccc3Sc3ncccc32)c1` as the molecule, how does the Potency read?
Answer: The Potency was “inactive”.

Question: Which Potency does the source give for `COc1cc(/C=N/n2cc(-c3ccccc3)[nH]c2=S)cc(OC)c1O` here?
Answer: Its Potency is inconclusive: 10.7 µM [inhibitor, partial curve].

Question: For `COC(=O)C1=C(O)/C(=C\c2ccc(OCC(=O)Nc3ccc(OC)cc3)cc2)N=C1C`, which Potency is on record?
Answer: The Potency was inconclusive: 3.01 µM [inhibitor, partial curve].

Question: How did the Potency turn out when `COc1ccccc1C(=O)Nc1c(C(=O)NC(C)(C)C)oc2ccccc12` was run?
Answer: Its Potency is “inactive”.

Question: For `CC(=O)Nc1ccc(S(=O)(=O)N(C)CC(=O)OCC(=O)c2cc(C)n(-c3ccc4c(c3)OCO4)c2C)cc1`, which Potency is on record?
Answer: The Potency was inconclusive: 37.9 µM [inhibitor, partial curve, poor fit].

Question: Which Potency does the source give for `CN1C(=O)/C(=C/c2ccccc2Cl)Sc2ccc(C(=O)N3CCCC3)cc21` here?
Answer: The Potency was inconclusive: 33.8 µM [inhibitor, single point].

Question: How did the Potency turn out when `Cc1cc(N2CCCCC2)nc(SCC(=O)c2ccccc2)n1` was run?
Answer: Its Potency is inconclusive: 26.9 µM [inhibitor, partial curve, poor fit].

Question: Which Potency does the source give for `O=C(Nc1sc2c(c1C(=O)NCc1cccnc1)CCCC2)c1ccco1` here?
Answer: Its Potency is inconclusive: 30.1 µM [inhibitor, partial curve, poor fit].

Question: `CCc1c(C)c2cc3c(c(C)c2oc1=O)OCN(CCc1ccccc1F)C3` was tested. Which Potency did it give?
Answer: Its Potency is inconclusive: 21.3 µM [inhibitor, single point].

Question: How did the Potency turn out when `Cc1cc(NC(=O)C(C)SCC(=O)Nc2ccc(SC(F)F)cc2)no1` (stereo not drawn) was run?
Answer: Its Potency is inconclusive: 8.49 µM [inhibitor, partial curve, poor fit].

Question: For `Cc1ccccc1-c1ccc(Nc2ccc(N3CCOCC3)cc2)nn1`, which Potency is on record?
Answer: The Potency was inconclusive: 26.9 µM [inhibitor, single point].

Question: How did the Potency turn out when `O=C(N/N=C/c1c(O)n(Cc2ccccc2)c(=O)c2ccccc12)c1cccnc1` was run?
Answer: The Potency was inconclusive: 26.9 µM [inhibitor, single point].

Question: `NC(N)=NC(=S)Nc1ccc(Cl)cc1` was tested. Which Potency did it give?
Answer: Its Potency is inconclusive: 26.9 µM [inhibitor, partial curve].

Question: With `O=C(CSc1nc(-c2cccc(F)c2)[nH]c1-c1ccccc1)Nc1ccc2c(c1)OCO2` as the molecule, how does the Potency read?
Answer: Its Potency is “inactive”.

Question: For `COC(=O)COc1nsnc1N1CCOCC1`, which Potency is on record?
Answer: Its Potency is “inactive”.

Question: With `O=C(COc1ccc2c(c1)oc(=O)c1ccccc12)NCC1CCC(C(=O)O)CC1` (stereo not drawn) as the molecule, how does the Potency read?
Answer: Its Potency is inconclusive: 26.9 µM [inhibitor, single point].

Question: Which Potency does the source give for `O=C(CSc1ccc(-c2ccccn2)nn1)Nc1ccccc1` here?
Answer: Its Potency is inconclusive: 23.9 µM [inhibitor, partial curve].

Question: `Cc1nc(SCc2ccc(Cl)c(Cl)c2)n[nH]1` was tested. Which Potency did it give?
Answer: The Potency was inconclusive: 16.9 µM [inhibitor, partial curve, poor fit].

Question: How did the Potency turn out when `COc1ccc(Nc2nc(C)cc(=O)[nH]2)cc1` was run?
Answer: The Potency was “inactive”.

Question: How did the Potency turn out when `Cc1cc2ncn(C(=O)c3ccc4c(c3)OCO4)c2cc1C` was run?
Answer: Its Potency is inconclusive: 2.69 µM [inhibitor, partial curve, poor fit].

Question: Which Potency does the source give for `O=C(CN1CCOCCOCCOCCOCC1)Nc1ccccc1` here?
Answer: Its Potency is inconclusive: 4.26 µM [inhibitor, partial curve, poor fit].

Question: How did the Potency turn out when `CCCC(C(=O)NC(C)(C)C)N(C(=O)c1snc(C(N)=O)c1N)c1ccc2c(c1)OCCO2` (stereo not drawn) was run?
Answer: Its Potency is inconclusive: 10.7 µM [inhibitor, partial curve, poor fit].

Question: With `Cc1c(C(=O)NCc2cccnc2)sc2nc(-c3ccc(F)cc3)cn12` as the molecule, how does the Potency read?
Answer: Its Potency is active: 19 µM.

Question: With `Cc1cc(=O)n(C2CCS(=O)(=O)C2)[nH]1` (stereo not drawn) as the molecule, how does the Potency read?
Answer: Its Potency is “inactive”.

Question: How did the Potency turn out when `Cc1cc(C(=O)N2CCc3ccccc32)c2cc(F)ccc2n1` was run?
Answer: The Potency was inconclusive: 26.9 µM [inhibitor, partial curve, poor fit].

Question: How did the Potency turn out when `CCc1n[nH]c(=S)n1/N=C/C(C)=C\c1ccccc1` was run?
Answer: The Potency was inconclusive: 37.9 µM [inhibitor, single point].

Question: For `COc1ccc2c(=O)c3c(=O)n(Cc4ccco4)c(-c4ccco4)nc3oc2c1`, which Potency is on record?
Answer: Its Potency is inconclusive: 30.1 µM [inhibitor, partial curve, poor fit].
